# According to the supplement of paper PMC3334620:
# The full ranking holds about 33,000 sequences; the median of “E-score (-0.5 to 0.5)” is about -0.017, and the highest 2% start at about 0.3. Some of the results follow.
# Target: T1, Sut1 (UniProt P53032)
# T1 sequence: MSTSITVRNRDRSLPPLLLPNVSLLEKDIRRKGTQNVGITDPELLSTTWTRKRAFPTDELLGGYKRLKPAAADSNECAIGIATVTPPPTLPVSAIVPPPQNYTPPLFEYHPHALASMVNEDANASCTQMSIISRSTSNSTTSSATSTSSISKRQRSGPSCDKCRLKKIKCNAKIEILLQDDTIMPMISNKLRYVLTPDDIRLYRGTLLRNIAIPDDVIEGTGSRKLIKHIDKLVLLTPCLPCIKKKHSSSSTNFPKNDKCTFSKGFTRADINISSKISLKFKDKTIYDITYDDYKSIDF
# Test: PBM E-score (8-mer binding enrichment) (E-score (-0.5 to 0.5)); higher = stronger / more preferred TF binding; most listed sequences are background and not binding sites
# Conditions: protein concentration: 200 nM; construct: GST-full length
# How it was run: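 Full-length yeast transcription factors or their DNA-binding domains, GST-tagged and expressed with PURExpress, were applied at about 100-200 nM to universal all-10-mer Agilent arrays. These arrays had been made double-stranded by primer extension on fresh or once-stripped slides. Detection used fluorescent anti-GST, normalisation used masliner, and E-scores for ungapped eight-base words pooled with reverse complements came from the Universal PBM Analysis Suite.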
row,Sequence,PBM E-score
1,ATTATTAA,0.236
2,ACGCGCGG,0.147
3,ACAATCGA,-0.0391
4,ACAAAGTG,0.0464
5,TATACTGA,0.292
6,CTCATAGA,0.0624
7,CACATGGA,-0.124
8,TGATTCAA,0.119
9,CAACCGGG,-0.129
10,ATGAATAC,0.132
11,TCGCCCAA,-0.12
12,TGTGATAA,0.172
13,AAGTGCAA,-0.0212
14,AAACATGG,-0.0258
15,ATGCACAA,-0.00059
16,AGGGCAGC,-0.129
17,GTTGTAAA,0.0974
18,ATATGATG,0.19
19,TCCTAAGA,-0.156
20,GCTTGATA,0.0126
21,ACCAGCGC,-0.182
22,GAATAAAA,0.242
23,CGTCGGTA,-0.229
24,AGTCACCC,-0.0174
25,ATATCGGG,-0.0571

row,Sequence,PBM E-score
1,TCAAATGA,0.174
2,AATGAAGT,0.059
3,GCATCCCC,-0.0582
4,ACGTGTAG,-0.224
5,ACCACGTG,-0.126
6,AACGGGAA,0.219
7,GCATACAA,0.0888
8,ACGGCGAG,-0.135
9,GGACTCTA,0.25
10,ACTCTAAA,0.215
11,CTGAAGTC,0.0851
12,ATTAAGTC,0.218
13,CATAATCG,0.112
14,AAGAGGTG,-0.0341
15,CTACCGCA,-9e-05
16,ACTACTAG,0.0721
17,AGGTATTA,0.17
18,AGCGCGCT,0.0133
19,GCTTGCCA,-0.142
20,TCGGCGAA,0.0741
21,AGGTGAGG,-0.115
22,GCCCTGCC,-0.235
23,CCCGGCAA,0.072
24,AGAAGTCC,0.238
25,CCGGCCGG,0.257

row,Sequence,PBM E-score
1,CTGAACGC,-0.144
2,CAATACGC,-0.0844
3,GGTGACAA,-0.0837
4,GCATCACC,-0.196
5,TTCCTAAA,-0.0683
6,ATCCAGTG,-0.0456
7,CCGCGTTA,0.00862
8,ACGTCGGG,-0.202
9,GCCGGACA,0.273
10,CTCCTGGA,-0.276
11,GCGCTCGA,-0.165
12,TAATTCTA,0.237
13,CTCAGGAA,0.0141
14,GATTAGGA,0.059
15,TTAAGCAA,0.141
16,CTGAGACA,-0.0695
17,AGTTTAAG,0.158
18,AGGAACCT,-0.00543
19,ACTCGCTC,-0.0565
20,ATAGGCAA,-0.187
21,ATGTTATA,0.233
22,AGCCCATA,-0.137
23,GACTGTGA,-0.0308
24,AGCTCTTA,0.0472
25,GGCCGCCA,-0.203

row,Sequence,PBM E-score
1,CCATCTCC,0.256
2,CTAGATGC,-0.05
3,AGGATTCC,-0.247
4,CGACTCGA,-0.0972
5,CGTCGGAA,0.196
6,AGGCTTAA,0.0748
7,AAATGAAA,0.265
8,CTCCGAAA,0.46
9,CGCAAAGC,0.0688
10,ACGAGGGA,-0.0733
11,GAGATGGA,-0.134
12,ATCTCCGC,0.399
13,GGTATGTA,0.0515
14,CAAGAACA,-0.0381
15,ACCCATCT,-0.0338
16,CCACTTGC,-0.0264
17,CACACGTA,-0.169
18,CCGTTGCG,0.0775
19,GAGAAACA,0.165
20,CGGAGGGA,-0.0584
21,GCAGCGGC,-0.219
22,AAAGCCGC,0.0223
23,ATCCCTAA,-0.184
24,CGGCCAAC,-0.127
25,GAGTGTGA,0.0613

row,Sequence,PBM E-score
1,ACCGTCCT,-0.128
2,CCTTGGAG,-0.216
3,AGGTAGTG,-0.162
4,AACGATTG,0.00912
5,AAATTGGA,0.173
6,ACCAGGTA,-0.247
7,ACGGTTAT,-0.0633
8,CAATGAGA,-0.0608
9,AGTGGCCG,-0.0637
10,CGTGACCC,-0.111
11,GTTTCTTA,0.0332
12,CCCATCGC,-0.189
13,ATGTCGGA,0.171
14,GAATTACA,0.197
15,GCGGGAAA,0.0939
16,AGATCGAA,0.127
17,CTCTCGCC,-0.182
18,GGCTGAAA,0.156
19,TCTAGAGA,-0.0781
20,CGTATTAG,0.15
21,AGATAGTC,-0.132
22,ATTCATCC,0.0522
23,AAAAGGTT,0.189
24,CAGTGATC,-0.16
25,CCCTGAGG,-0.198

row,Sequence,PBM E-score
1,CCATAATA,0.157
2,GCGAGCGC,-0.137
3,GCACTCAC,-0.146
4,GGCTTAAA,0.0567
5,CATTGGGC,-0.206
6,GACTTCAC,-0.00592
7,ATCCTTCA,0.0682
8,CGTCCACC,-0.203
9,AAAACAAT,0.215
10,CCACGTTC,-0.173
11,ATAACAGC,0.0774
12,TGAAGCCA,0.0704
13,AAGCTGGT,-0.0508
14,CTCTCAAA,0.0731
15,GGTAAGGA,-0.143
16,ATTGCTTG,0.111
17,AAGTACCA,0.0305
18,AGACTCCA,-0.00302
19,TAGTTGAA,0.132
20,TATAGGCA,-0.158
21,AATAATAA,0.304
22,GTCCAAGA,-0.258
23,TCACGCCA,-0.0888
24,GCGTTTTA,0.0253
25,CACGATAC,-0.0756

row,Sequence,PBM E-score
1,AATTAAAT,0.276
2,CCATTTCC,0.139
3,CAGCCGAG,-0.13
4,GTTCGACA,-0.0722
5,ACGTAATG,-0.0505
6,AGCTTTGG,-0.0138
7,AAACAGAT,0.13
8,CTGTCTCA,-0.138
9,AGGGCCAC,-0.26
10,AGTGCGGA,0.248
11,CCGGCTCC,0.0984
12,CAATATCC,0.0312
13,ATCCCTGA,-0.0472
14,AGGGTCCC,-0.24
15,CCGAAAAG,0.178
16,GCGAAGCC,-0.128
17,ATGGGAGA,-0.233
18,CTGTTTCA,-0.0142
19,TAAACTTA,0.0483
20,AGGCGCGG,-0.145
21,GGAGAACC,0.115
22,GTGCCAAC,-0.0403
